Measurements as given in PubChem BioAssay AID651820 (National Center for Advancing Translational Sciences (NCATS), 2012).
The campaign covered roughly 340,000 compounds. About 12,000 (3.5%) were called active. Inconclusive means that the source gave no clear call. Such entries were picked first, then a sample of the others. Calls follow the shape of the dose curve; as a rule, active = well fitted inhibition curve with a large enough effect; inconclusive = small, poorly fitted or top-dose-only effect, or another doubt; inactive = no such curve, though single readings can be large or run the other way. Potencies of inconclusive entries are left out as doubtful fits.

Assay: qHTS Assay for Inhibitors of Hepatitis C Virus (HCV)
Conditions: Huh7.5.1 HCVcc-Cre (HCVcc is cell-culture hepatitis C virus) infection, luciferase reporter, 44 h; series mostly up to 41.8 µM
Summary of the method: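 Reporter virus HCVcc-Cre (~0.5 moi) infects cells exposed to compound; seeding density 1,000 cells/well with 4 h settling beforehand. Luminescence, 15 sec read, taken 44 h post-infection following a 15 min RT substrate incubation.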
Potency is read from the fitted curve at half-maximal effect; tags tell the direction and shape of the fitted curve.

SMILES	Potency
Cc1nc(NC2=NCN(CCCN3CCOCC3)CN2)nc2c(C)cccc12	active: 7.08 µM
O=C(COC(=O)c1cncc(Br)c1)Nc1ccc2c(c1)OCO2	inactive
COCCN(C(=O)c1cc(S(=O)(=O)N2CCCCC2)ccc1Cl)c1c(N)n(CC(C)C)c(=O)[nH]c1=O	inactive
N#Cc1ccccc1NC(=O)CN(Cc1ccccc1)Cc1ccccc1	inconclusive [inhibitor, single point]
COc1cc(C(=O)Nc2cccc(-n3cnnn3)c2)cc(OC)c1OC	inconclusive [inhibitor, partial curve]
C=C1CCC[C@]2(C)C[C@H]3OC(=O)C(CNC(C)CC)[C@H]3CC12 (stereo partly drawn)	inactive
COc1ccccc1C#Cc1ccc2c(=O)c3ccccc3n(C)c2c1	inactive
Cc1cc(C(=O)CN2CCCC(C)C2)c(C)n1-c1ccc(F)cc1 (stereo not drawn)	inactive
CC(C)c1ccccc1NC(=S)NC1CCCCC1	inactive
COc1cccc(-n2nc(C(N)=O)c(O)cc2=O)c1	inactive
COc1cc(NC(=O)c2c(F)c(F)c(OC)c(F)c2F)ccc1NC(=O)c1cccs1	inconclusive [inhibitor, partial curve]
C[C@H](CO)N1C[C@H](C)[C@@H](CN(C)Cc2ccc(Cl)c(Cl)c2)Oc2c(NC(=O)c3ccncc3)cccc2C1=O	inconclusive [inhibitor, full curve]
COc1cc(/C=N/Nc2nc3ccccc3o2)cc(OC)c1O	inconclusive [inhibitor, partial curve]
OCC1CCCN(Cc2cn(Cc3ccccc3)nc2-c2cc3ccccc3o2)C1 (stereo not drawn)	inactive
OC(CNCc1ccccc1)(c1ccc(F)cc1)c1ccc(F)cc1	inactive
COc1ccc2nc(N/C(N)=N/C(=S)Nc3cccc(C)c3)nc(C)c2c1	inconclusive [inhibitor, full curve]
CCc1cccc(CC)c1NC(=O)C[n+]1cccc(C(N)=O)c1	inconclusive [inhibitor, partial curve, poor fit]
CCOc1ccc(-n2c(O)c(/C=N/c3ccnn3Cc3ccncc3)c3ccccc3c2=O)cc1	inactive
COc1cc(NC(=O)c2noc3c2CCC3)c(OC)cc1Cl	inconclusive [inhibitor, partial curve]
N/C(Cc1ccc([N+](=O)[O-])cc1)=N\OC(=O)Cc1ccc(Cl)cc1	inactive
CC(=O)c1cccc(NC(=O)C2CC(=O)N(c3ccc4c(c3)OCCO4)C2)c1 (stereo not drawn)	inconclusive [inhibitor, single point]
CCOCCCN(C)C1CCN(C(=O)c2oc3ccccc3c2NC(=O)c2cccc([N+](=O)[O-])c2)CC1	active: 14.1 µM
O=C(CNC(=O)c1ccccc1)OCCOc1cccc(Cl)c1	inconclusive [inhibitor, full curve, poor fit]
COc1cccc(NC(=O)C(C)OC(=O)c2n[nH]c3ccccc23)c1 (stereo not drawn)	inconclusive [inhibitor, single point]
COc1ccc(Cl)cc1NC(=O)Nc1cccc([N+](=O)[O-])c1C	active: 15.8 µM

SMILES	Potency
CN(CCNC(=O)c1cccc(N2CCCC2=O)c1)Cc1ccccc1	inactive
c1ccc(C2NCCc3ccccc32)cc1 (stereo not drawn)	inactive
COc1ccc2[nH]cc(S(=O)(=O)c3ccc(F)cc3)c(=O)c2c1	inconclusive [inhibitor, partial curve]
Clc1ccc(-c2noc(CN3CCCC3)n2)cc1	inconclusive [inhibitor, single point]
CCOc1ccccc1N(C)S(=O)(=O)c1ccc2c(c1)CC(C)N2C(=O)C1CC1 (stereo not drawn)	inconclusive [inhibitor, single point]
CCC(=NCC1CCCO1)c1c(O)n(-c2ccccc2)c(=O)[nH]c1=O (stereo not drawn)	inactive
CCN(CC)CCCNC(=O)C1CCN(C(=O)c2oc3cc4sc(N(C)C)nc4cc3c2C)CC1	inconclusive [inhibitor, single point]
COC(=O)c1ccc(NC(=O)CSC2=Nc3ccccc3C3CC=NN23)cc1 (stereo not drawn)	inconclusive [inhibitor, single point]
O=[N+]([O-])c1ccc(CCNc2cccc3ccccc23)c([N+](=O)[O-])c1	inconclusive [inhibitor, full curve]
Cc1cc2n(n1)C(c1ccc(O)cc1)Nc1ccccc1-2 (stereo not drawn)	inconclusive [inhibitor, single point]
N#Cc1cc([N+](=O)[O-])ccc1NCCc1ccccn1	inconclusive [inhibitor, single point]
CCN(c1ccc(C(O)(C(=O)OC)C(F)(F)F)cc1)S(=O)(=O)c1ccccc1 (stereo not drawn)	inactive
COc1ccccc1OCC(=O)Nc1nnc(-c2ccco2)s1	inactive
Cc1cc2cc(C(=O)N3CCc4c([nH]c5ccccc45)C3c3ccccn3)ccc2o1 (stereo not drawn)	inconclusive [inhibitor, single point]
COc1ccc(OC)c(NC(=O)COC(=O)c2c(C)noc2C)c1	inactive
CCOC(=O)c1cccc(NC(=O)c2ccc(NC(=O)c3ccco3)cc2)c1	inconclusive [inhibitor, single point]
O=C(Nc1ccccc1)c1ccccc1OCc1ccc(F)cc1	inconclusive [inhibitor, full curve]
CN(C)c1ccc(N=Nc2nc3ccccc3n2C)cc1	active: 10 µM
CCCC(=O)Nc1ccc2nc(SCC(=O)N3CCCC3)sc2c1	inconclusive [inhibitor, single point]
CCOC(=O)c1cncc(NC(=O)c2ccccc2)c1	inconclusive [inhibitor, single point]
CCCCn1c(N)c(N(Cc2ccccc2OC)C(=O)c2ccc([N+](=O)[O-])s2)c(=O)[nH]c1=O	inconclusive [inhibitor, single point]
CCc1ccc(S(=O)(=O)Nc2cccc(-c3ccc4nnc(C)n4n3)c2)s1	inconclusive [inhibitor, single point]
CCOC(=O)N1CCN(Cc2nc3cc(NC(=O)CC)ccc3n2C)CC1	inconclusive [inhibitor, single point]
CC(C)OC(=O)CSc1nc2cccnc2n1C1CCCCC1	inconclusive [inhibitor, partial curve]
O=C1CCCC/C=C\C[C@H](CC(=O)N(CCO)Cc2ccccc2)C(=O)NCCO1	inconclusive [inhibitor, single point]

SMILES	Potency
Nc1nc(N)c(N=Nc2ccc(SCC(=O)O)cc2)c(=O)[nH]1	inactive
NC(=O)C1CCN(CC(O)COc2ccc(-c3ccccc3)cc2)CC1 (stereo not drawn)	active: 10 µM
CC1CC2(C)C(CCC3C2CCC2(C)C(OP(=O)(N4CC4)N4CC4)CCC32)CC1=O (stereo not drawn)	inconclusive [inhibitor, single point]
CCSC(=O)CCCCCCCCCCCO	inactive
CC1(C)CC(=O)C/C(=N/Nc2nc3ccccc3s2)C1	inconclusive [inhibitor, partial curve]
COCCn1c(=O)[nH]c(=O)c2c1nc(-c1ccc(-c3ccc(Cl)cc3[N+](=O)[O-])o1)n2Cc1ccccc1	active: 10 µM
Cc1cccc(N2CCN(CCNC(=O)c3cc4c(s3)CS(=O)(=O)C4)CC2)c1C	inconclusive [inhibitor, single point]
COc1ccccc1N1CCN(CCNC(=O)Nc2cccc(C)c2C)CC1	inconclusive [inhibitor, partial curve]
CCN(CC)S(=O)(=O)c1ccc(C)c(NC(=O)CSc2nc3ccc(C)cc3[nH]2)c1	inconclusive [inhibitor, partial curve]
COc1cccc(-c2ccc(NC(=O)C3CCCN(Cc4cnn(C)c4)C3)cc2)c1 (stereo not drawn)	active: 12.6 µM
O=C(Cc1ccccc1F)Nc1nc(-c2cccs2)cs1	inconclusive [inhibitor, single point]
COC(=O)CCN(C)CCC(=O)OC	inactive
CCOC(=O)c1ccc(NC(=S)N(CCCN2CCCCCC2)Cc2ccco2)cc1	inconclusive [inhibitor, single point]
CC(C)(C)NC[C@H](O)COc1cccc2c1CCCC2=O	inactive
CCOc1ccc(C(=O)Nc2ccc(Cl)cn2)cc1Cl	inconclusive [inhibitor, full curve]
COc1ccc(NC(=O)c2c(C(F)(F)F)nn(C)c2SCc2ccccc2)cc1	inconclusive [inhibitor, partial curve]
CCCCOc1ccc(C(=O)NCC(=O)N(C)CC(=O)Nc2ccc(N3CCOCC3)cc2)cc1	inconclusive [inhibitor, partial curve, poor fit]
CC(=O)Nc1ccc(NC(=O)c2cccc(-c3cc4ccccc4oc3=O)c2)cc1	inconclusive [inhibitor, single point]
Fc1ccc(-c2nnc3ccccn23)cc1	inactive
COc1cc(C(=O)N[C@@H](C)C(=O)N2CCC3(CC2)NCCc2[nH]cnc23)cc(OC)c1OC	inconclusive [inhibitor, partial curve]
Cc1cc(C(=O)N/N=C/c2cccnc2)c2ccccc2n1	inactive
Cc1cccc(N=C2NC(=O)/C(=C/c3cccn3C)S2)c1	active: 11.2 µM
CCCCn1c(=O)[nH]c(=O)c2c1nc(-c1ccc(-c3ccc(F)cc3)o1)n2C	inactive
